The results in this text go back to paper PMC4336329 (PLoS ONE, 2015).

Molecules are shown by their SMILES. Out of some 310,000 compounds screened, about 14,000 (4.5%) showed an effect of 50% or more. Effects have a minus sign here. This is one part of the list.
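Note: peak tail current of the secondary pulse compared with the same well before compound.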

The target of the assay is human ether-à-go-go-related gene (hERG) potassium channel (human, UniProt Q12809). Description: primary screen, population patch clamp on CHO cells stably expressing hERG.
human ether-à-go-go-related gene (hERG) potassium channel, sequence (Q12809 whole entry, looked up): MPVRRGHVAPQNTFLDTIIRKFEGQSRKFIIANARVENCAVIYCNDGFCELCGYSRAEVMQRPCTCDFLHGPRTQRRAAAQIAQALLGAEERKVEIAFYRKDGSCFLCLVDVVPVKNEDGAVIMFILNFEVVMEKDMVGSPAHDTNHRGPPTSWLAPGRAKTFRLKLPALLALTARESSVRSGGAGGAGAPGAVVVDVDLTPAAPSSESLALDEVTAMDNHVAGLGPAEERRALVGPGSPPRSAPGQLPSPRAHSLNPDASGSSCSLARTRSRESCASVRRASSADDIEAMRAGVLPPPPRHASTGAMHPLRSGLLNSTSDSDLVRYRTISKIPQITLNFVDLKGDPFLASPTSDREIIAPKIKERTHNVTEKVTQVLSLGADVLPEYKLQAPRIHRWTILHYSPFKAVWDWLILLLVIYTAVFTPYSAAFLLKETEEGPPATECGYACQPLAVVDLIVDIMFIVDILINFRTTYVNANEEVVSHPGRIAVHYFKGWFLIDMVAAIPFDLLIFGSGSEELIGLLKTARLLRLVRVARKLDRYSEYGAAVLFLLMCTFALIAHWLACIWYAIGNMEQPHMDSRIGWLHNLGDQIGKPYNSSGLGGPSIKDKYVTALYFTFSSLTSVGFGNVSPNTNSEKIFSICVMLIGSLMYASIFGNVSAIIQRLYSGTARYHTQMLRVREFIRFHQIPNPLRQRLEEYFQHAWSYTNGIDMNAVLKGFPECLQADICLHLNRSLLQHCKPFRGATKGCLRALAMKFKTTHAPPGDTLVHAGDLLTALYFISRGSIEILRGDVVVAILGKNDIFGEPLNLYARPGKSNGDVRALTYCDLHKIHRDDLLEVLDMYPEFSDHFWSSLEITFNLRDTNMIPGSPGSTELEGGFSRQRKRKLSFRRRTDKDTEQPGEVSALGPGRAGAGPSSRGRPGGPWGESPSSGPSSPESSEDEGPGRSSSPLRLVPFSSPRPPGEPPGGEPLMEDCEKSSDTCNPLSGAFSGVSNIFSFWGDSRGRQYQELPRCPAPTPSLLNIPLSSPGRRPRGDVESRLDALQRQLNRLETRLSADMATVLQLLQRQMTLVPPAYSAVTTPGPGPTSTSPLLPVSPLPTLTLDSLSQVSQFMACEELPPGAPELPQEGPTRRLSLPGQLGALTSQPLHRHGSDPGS
For the compound `CCCCC(=O)Nc1nc2ccc3nc(C)sc3c2s1`, the “hERG current change (%, negative = inhibition) at 10uM” value was found to be 9.37%.

Take `Cc1noc(C)c1CN1C(=O)c2ccccc2C1=O`: the “hERG current change (%, negative = inhibition) at 10uM” value is recorded as 13.6%. Regarding `N#CC1=C2SCN(c3ccccc3)CN2C(=O)CC1c1cccs1` (centres unmarked), the “hERG current change (%, negative = inhibition) at 10uM” value is listed as 11.2%.

On to `O=C(CSc1nnc(CNc2ccc(F)cc2)o1)N1CCCc2ccccc21`, for which the “hERG current change (%, negative = inhibition) at 10uM” value was 2.24%. Regarding `COc1ccc(CN2C(=O)C(C)N(C(=O)c3c(F)cccc3F)c3ccccc32)cc1` (centres unmarked), the “hERG current change (%, negative = inhibition) at 10uM” value was found to be 28.7%. In the case of `O=C(CCC(=O)Nc1ccccc1)NNC(=O)c1ccco1`, the “hERG current change (%, negative = inhibition) at 10uM” value came out at 8.99%. Consider `CC(=O)c1cccc(N2C(=O)C3C(C(=O)Nc4cc(C)on4)C4(C)C=CC3(O4)C2C(=O)NC(C)(C)C)c1` (centres unmarked), for which the “hERG current change (%, negative = inhibition) at 10uM” value is on record as 6%.

As for `COc1ccc(S(=O)(=O)NNC(=O)Nc2ccc(C)cc2)c(OC)c1`, the “hERG current change (%, negative = inhibition) at 10uM” value is given as -20.9%.

Take `CC(NC(=O)CCc1nnc(C2CCCCC2)o1)c1ccc(F)cc1` (centres unmarked): the “hERG current change (%, negative = inhibition) at 10uM” value is 14.9%. `CCOC(=O)/C=C/COc1ccccc1[N+](=O)[O-]`: the “hERG current change (%, negative = inhibition) at 10uM” value was 2.48%. As for `Cc1ccccc1NC(=O)NNC(=O)OC(C)(C)C`, the “hERG current change (%, negative = inhibition) at 10uM” value is -6.37%. The value for `Cc1cc(C)n(-c2ccc(C(=O)OCc3nnc(-c4ccccc4)o3)cc2)n1` was 10%; that for `COc1ccc(CCNc2nc(-c3ccc(O)cc3)cs2)cc1OC` was 4.8%. The result for `COc1ccc(S(=O)(=O)NCC2CCCO2)cc1NC(=O)c1ccc(Cl)cc1` (centres unmarked) reads -54%; that for `COC(=O)CCN(C(=O)c1cccc([N+](=O)[O-])c1)c1ccccn1`, -0.262%. The result for `O=C(NCc1ccncc1)C1COc2ccccc2O1` (centres unmarked) reads -6.92%; that for `O=C(Cc1ccc(F)cc1)Nc1nnc(-c2ccc(F)cc2)o1`, 10.9%; that for `COCCN(CC(=O)Nc1cc(Cl)ccc1-n1cncn1)Cc1nc2ccccc2c(=O)[nH]1`, -43%. For `COc1ccc(C)cc1N(CC(=O)N1CCOCC1)S(C)(=O)=O`, the “hERG current change (%, negative = inhibition) at 10uM” value worked out at 21.2%. As to `CCOC(=O)CN(c1cc([N+](=O)[O-])ccc1OC)S(C)(=O)=O`, the “hERG current change (%, negative = inhibition) at 10uM” value is 14.1%.

Consider `CCN(CC)CCNc1nc(-c2cccs2)c(CC(=O)O)s1.O=C(O)C(=O)O`, for which the “hERG current change (%, negative = inhibition) at 10uM” value is given as 24.1%.

On to `COc1cccc(CNC(=O)CSc2ccc(-c3ccco3)nn2)c1`, for which the “hERG current change (%, negative = inhibition) at 10uM” value worked out at 2.15%. In the case of `[O-]/C(=C(\C(=S)NCCN1CCOCC1)[n+]1ccccc1)c1ccc(Cl)s1`, the “hERG current change (%, negative = inhibition) at 10uM” value came to 9.04%. Turning to `CCOC(=O)C1CCN(S(=O)(=O)c2ccc3c(c2)CC(=O)N3)CC1`, the “hERG current change (%, negative = inhibition) at 10uM” value was -32.5%. As to `COCc1nnc(SCC(=O)NCc2ccccc2)n1-c1ccccc1`, the “hERG current change (%, negative = inhibition) at 10uM” value is listed as -3.33%. The value for `CC(/C=C/c1ccco1)=N\NC(=O)COc1ccc(C)c(C)c1` was -15.6%; that for `Cc1cc(CSc2ccccc2)ccc1NC(=O)c1cccc([N+](=O)[O-])c1` was 6.9%. Turning to `COc1ccc(CNC(=O)c2ccc3c(=O)n(CCCN4CCCC4=O)c(=S)[nH]c3c2)cc1`, the “hERG current change (%, negative = inhibition) at 10uM” value is reported as 19%. In the case of `O=C1N(c2ccc(Cl)cc2)C(c2ccccc2)N2CCCN12` (centres unmarked), the “hERG current change (%, negative = inhibition) at 10uM” value was found to be 26.2%. With `NS(=O)(=O)c1ccc(-n2nc(C(=O)O)cc2-c2ccc(Cl)cc2)cc1`, the “hERG current change (%, negative = inhibition) at 10uM” value stood at 12.6%. In the case of `COc1ccc(C)cc1N(CC(=O)N/N=C/c1ccccc1C(=O)O)S(=O)(=O)c1ccccc1`, the “hERG current change (%, negative = inhibition) at 10uM” value was 18.2%. The result for `COc1ccc(N2CCN(CC(=O)NCc3ccccc3)CC2)cc1` reads 0.922%.

As for `CC(=O)Nc1ccc(C(=O)COC(=O)CCS(=O)(=O)c2ccccc2)cc1`, the “hERG current change (%, negative = inhibition) at 10uM” value is reported as 7.74%. Turning to `Cc1ccc(C(=O)NCC(=O)OCC(=O)NCCc2ccccc2)s1`, the “hERG current change (%, negative = inhibition) at 10uM” value is recorded as 6.4%. The value for `Cc1ccccc1Cn1cccc1/C=C1/C(=N)N2C=CSC2=NC1=O` was 5.35%; that for `Cc1cc(NC(=O)C2CC(=O)N(c3cccc(Cl)c3)C2)no1` (centres unmarked) was -12.1%; that for `O=C(CCN1C(=O)/C(=C/c2ccc(F)cc2)SC1=S)NCCCn1ccnc1` was -63.6%. As for `N#Cc1c(-n2cccc2)cccc1-n1cccc1`, the “hERG current change (%, negative = inhibition) at 10uM” value was -2.09%. The result for `CCOC(CNC(=O)C(=O)Nc1cc2c3c(c1)CCC(=O)N3CCC2)OCC` reads 10.7%; that for `CC(C)CC(OC(=O)c1ccco1)C(=O)NC1CCCC1` (centres unmarked), -5.48%; that for `CCCOc1ccc(CNC(=O)Cn2c(=O)oc3ccccc32)cc1`, -9.01%. For `CCOC(=O)c1c(C)[nH]c(C(=O)C(C)OC(=O)c2cccc(OCc3c(C)noc3C)c2)c1C` (centres unmarked), the “hERG current change (%, negative = inhibition) at 10uM” value is on record as 8.88%. The value for `COc1ccc(C)cc1S(=O)(=O)N1CCCC(C(=O)NC2CC2)C1` (centres unmarked) was -0.49%; that for `CC1(C)CCCN(Cc2c(O)ccc3c(=O)c(-c4nc5ccccc5s4)c(N)oc23)C1` was 3.68%.
